Experimental data from the RNAGym collection of RNA variant scans (doi:10.1073/pnas.2313332121).
Variants at the background level are over-represented here.

B1: TPR 5TU (parent)
chain: GGAUCUUCUCGAUCUAACAAAAAAGACAAAUCUGCCACAAAGCUUGAGAGCAUCUUCGGAUGCAGAGGCGGCAGCCUUCGGUGGCGCGAUAGCGCCAACGUUCUCAACUAUGACACGCAAAACGCGUGCUCCGUUGAAUGGAGUUUAUCAUG

Variants of: B1
Experiment: polymerase ribozyme fitness, log enrichment relative to wild type (log ratio); higher = more active; in vitro selection for triplet polymerase activity
Summary of the method: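 Mutant libraries of each subunit of a heterodimeric triplet polymerase ribozyme were built by PCR and transcribed. Each library went through one round of in vitro selection in triplicate: annealing with biotinylated primer, partner subunit and triplets, frozen incubation at −7 °C, gel excision of extended constructs, streptavidin-bead capture and RT-PCR. Input and output libraries were Illumina-sequenced; only genotypes with ≥10 input reads and ≥1 read per output were kept. Fitness is log2(genotype enrichment/wild-type enrichment), using inverse-variance-weighted replicate averages.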

Point of comparison: C93U A110U, “polymerase ribozyme fitness (log ratio)” value -4.1. Against it:
- A91U C99U — lower, ≤ -4.2
- C93G U102G — lower, ≤ -4.2
- A91U G141A U144G — lower, ≤ -4.2
- C95A G140A — higher, -2.71
- G94A G117U — higher, -0.469
- G92C G94A A142U G143U A147G — lower, ≤ -4.2
- U90G C99G A150U — lower, ≤ -4.2
- G92A C116A G143C A150G — lower, ≤ -4.2
- U90G G92A — lower, ≤ -4.2
- G94C C108U — lower, ≤ -4.2
- C93G C108U C116G — lower, ≤ -4.2
- G92A C108G U139G A142G C149A — lower, ≤ -4.2
- G94U C96U — higher, -0.719
- C93A C118U C125A A142G — lower, ≤ -4.2
- G92C U135G A142U — the same, -4.1
- C93A U102C C105A C125G G143U U144A — lower, ≤ -4.2
- A91U A98G — lower, ≤ -4.2
- C93A G117U — higher, -1.92
- A91C A107G — lower, ≤ -4.2
- U90G A107U — lower, ≤ -4.2
- G92C U104G — higher, -1.85
- U90G C99A C116U U134A A137U — lower, ≤ -4.2
- U90G C108U — lower, ≤ -4.2
- G94U A142C A150C — lower, ≤ -4.2
- A91U G100U — lower, ≤ -4.2
- C93G C149A — lower, ≤ -4.2
- G92U C103U C108G G133C — lower, ≤ -4.2
- A91U U130G — lower, ≤ -4.2
- C93G G94U C95A G128A — lower, ≤ -4.2
- C93U U102C C105U C116G G152U — lower, ≤ -4.2
- A91C U134A — lower, ≤ -4.2
- G92A U127A A150U — the same, -4.1
- C95U C96A C99U C108U — within 0.2 log units, -4.11
- C93U C125A — higher, -2.69
- C93U A106C C129G G143A — higher, -3.64
- A91U C95U — lower, ≤ -4.2
- A91U C95A C108U — lower, ≤ -4.2
- A91G A107U A147U U148C — lower, ≤ -4.2
- A91U C95U C129G — lower, ≤ -4.2
- C93U A110C — lower, ≤ -4.2
- A91C G136C G141U A150C — lower, ≤ -4.2
- A91C G100C C103G G143U — lower, ≤ -4.2
- C93U C103A C105U A120G U134C — within 0.2 log units, -3.94
- C93U G143C — higher, -3.12
- G92A C96G C131G — lower, ≤ -4.2
- A91G U139C — lower, ≤ -4.2
- G94U C108A — lower, ≤ -4.2
- G94A A106G C131G — lower, ≤ -4.2
- C93A A107G U146C — lower, ≤ -4.2
- G94U G143U — higher, -3.64
- A91C C96G — lower, ≤ -4.2
- A91G A107C U144A — lower, ≤ -4.2
- C93A C105U — higher, -2.67
- G94C A113G — higher, -2.8
- C93U G94C G133A — lower, ≤ -4.2
- G94A G133U — higher, -3.19
- C93U A107U — within 0.2 log units, -4.04
- U90G C96A G133A U144A — lower, ≤ -4.2
- A91U G128A U139C A150U — lower, ≤ -4.2
- G92A C105A A147U — within 0.2 log units, -4.16
- U90G A97G C114U U139G — lower, ≤ -4.2
- U90G C132U — lower, ≤ -4.2
- U90G C129A C132G — lower, ≤ -4.2
- A91G G140C U148A U151C — lower, ≤ -4.2
- A91G C125A A150U — lower, ≤ -4.2
- A91U U139C G152U — lower, ≤ -4.2
- A91U C93A A107U C114U G126A G152A — lower, ≤ -4.2
- C93U A107G G141U — lower, ≤ -4.2
- G94A U139C — higher, -3.82
- G94A G152C — higher, -3.08
- A91G C118U A121U A122U G124A — higher, -3.56
- C93U C99G — higher, -1.97
- C93G C103G C125A — lower, ≤ -4.2
- C93A C96A — higher, -3.78
- C93G C116U — higher, -3.07
- G94C A97U — higher, -2.45
- A91U A97U C132U — lower, ≤ -4.2
- A91C A120G G126A — lower, ≤ -4.2
- C93U C116U C123A — higher, -1.16
- G92A A150C — lower, ≤ -4.2
- G92U G141C C149G — lower, ≤ -4.2
- A91G G140U — within 0.2 log units, -4.19
